Data reported in PMC4336329 (PLoS ONE, 2015).
Screen size: about 310,000 compounds; about 14,000 (4.5%) showed an effect of 50% or more. Effects have a minus sign here. Some of the results follow.

Target: human ether-à-go-go-related gene (hERG) potassium channel (human, UniProt Q12809)
Assay: primary screen, population patch clamp on CHO cells stably expressing hERG
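Also: peak tail current of the secondary pulse compared with the same well before compound.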

Chain of human ether-à-go-go-related gene (hERG) potassium channel (Q12809 whole entry, looked up): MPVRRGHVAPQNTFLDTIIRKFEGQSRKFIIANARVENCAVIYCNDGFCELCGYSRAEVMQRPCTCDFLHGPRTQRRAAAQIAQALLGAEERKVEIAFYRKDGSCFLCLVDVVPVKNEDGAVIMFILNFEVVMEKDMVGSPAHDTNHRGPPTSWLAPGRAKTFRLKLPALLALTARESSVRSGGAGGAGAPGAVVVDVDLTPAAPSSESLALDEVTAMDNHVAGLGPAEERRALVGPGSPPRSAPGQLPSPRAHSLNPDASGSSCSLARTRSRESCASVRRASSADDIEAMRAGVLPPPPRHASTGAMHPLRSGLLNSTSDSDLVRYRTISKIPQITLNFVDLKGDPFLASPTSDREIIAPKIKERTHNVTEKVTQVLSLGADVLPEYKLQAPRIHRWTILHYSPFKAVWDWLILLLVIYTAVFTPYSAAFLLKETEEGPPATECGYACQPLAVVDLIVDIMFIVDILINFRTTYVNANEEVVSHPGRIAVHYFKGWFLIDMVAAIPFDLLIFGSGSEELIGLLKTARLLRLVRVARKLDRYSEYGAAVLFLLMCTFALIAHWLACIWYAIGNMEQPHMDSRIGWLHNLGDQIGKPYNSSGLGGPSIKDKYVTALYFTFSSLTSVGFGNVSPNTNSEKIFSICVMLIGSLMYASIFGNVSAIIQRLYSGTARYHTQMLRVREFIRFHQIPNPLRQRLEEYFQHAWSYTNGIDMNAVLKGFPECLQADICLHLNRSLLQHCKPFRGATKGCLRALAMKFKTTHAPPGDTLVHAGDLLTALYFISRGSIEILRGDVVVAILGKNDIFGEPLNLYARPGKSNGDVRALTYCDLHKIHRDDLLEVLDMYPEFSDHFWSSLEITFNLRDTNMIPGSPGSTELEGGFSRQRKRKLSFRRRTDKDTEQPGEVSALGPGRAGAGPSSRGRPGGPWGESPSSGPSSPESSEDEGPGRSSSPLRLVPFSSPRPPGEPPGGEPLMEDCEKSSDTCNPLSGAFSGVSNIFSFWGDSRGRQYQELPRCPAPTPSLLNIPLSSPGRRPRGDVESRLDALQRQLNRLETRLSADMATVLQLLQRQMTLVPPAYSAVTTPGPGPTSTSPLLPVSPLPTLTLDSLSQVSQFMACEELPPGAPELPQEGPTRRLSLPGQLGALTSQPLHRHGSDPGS

| SMILES | hERG current change (%, negative = inhibition) at 10uM |
| --- | --- |
| Cn1c(SCC(=O)N2CCN(c3ccccc3)CC2)nnc1-c1c[nH]c2ccccc12 | -50.5% |
| COc1cccc(N2CC(C(=O)N3CCC4(CC3)CC(=O)c3ccccc3O4)CC2=O)c1 (stereo not drawn) | -53.5% |
| CN(CCOc1ccc(Cl)cc1)C(=O)c1cc(-c2ccco2)nc2ccccc12 | -33.7% |
| CCOC(=O)c1sc(NC(=O)c2ccc3ncsc3c2)nc1C | 10.8% |
| Cc1cccc(NC(=S)NCCC(c2ccccc2)c2ccccc2)c1 | 12% |
| CCCCCC(=O)NNC(=S)NC(=O)c1ccccc1[N+](=O)[O-] | 17.8% |
| CC(C)c1ccc(NC(=S)NCc2cccs2)cc1 | -18.7% |
| CC(=O)N1CCc2cc(C(=O)CN3CCC(C)CC3)ccc21 | -1.35% |
| c1ccc(Oc2nc(NCc3ccco3)nc(NCc3ccco3)n2)cc1 | -2.28% |
| CCOC(=O)N1CCC(NC(=O)c2cc3c(-c4cccc(OC)c4)nn(C)c3s2)CC1 | -9.54% |
| COc1cccc2cc(C(=O)Nc3ccccc3Cl)/c(=N/NS(=O)(=O)c3ccccc3)oc12 | 21.2% |
| Cc1ccc2c(C)c(C(=O)N3CCN(c4cnccn4)CC3)oc2c1C | -24.5% |
| N#CCC(=O)N/N=C/c1cn(Cc2ccc(Cl)cc2Cl)c2ccccc12 | 11.9% |
| CCCN1CCC(N(C)CCc2ccc(OC)c(OC)c2)CC1 | -11.4% |
| O=C(CCCN1C(=O)c2cccc3cccc(c23)C1=O)NCc1ccco1 | 23% |
| N#CC1=C(N)Oc2c(c(=O)sc3ccccc23)C1c1ccncc1 (stereo not drawn) | 17.2% |
| O=C(CN(Cc1ccco1)C(=O)c1ccccc1)Nc1ccc(Cl)c(Cl)c1 | -1.85% |
| CC(Sc1nnc2ccccn12)C(=O)Nc1ccc2c(c1)OCCO2 (stereo not drawn) | 16.7% |
| C=CCC1(CC=C)CCCN1Cc1nc(COc2ccccc2)no1 | -11.5% |
| COC(=O)[C@@]12CCCN1[C@H](c1ccc(-c3ccc(C(C)=O)cc3)c(OC)c1)[C@H]1C(=O)N(C)C(=O)[C@H]12.O=C(O)C(F)(F)F | -19.9% |
| Cc1ccc(NC(=S)NCc2ccco2)c(C)c1 | 1.56% |
| Cc1ccc(NC(=O)c2cc(-c3cccs3)on2)cc1 | 15.4% |
| Cc1cccc(-n2c(CNC(=O)c3ccc(S(=O)(=O)N4CCCCC4)cc3)n[nH]c2=S)c1 | 15% |

| SMILES | hERG current change (%, negative = inhibition) at 10uM |
| --- | --- |
| S=c1[nH]nc(-c2cccs2)n1/N=C/c1c(Cl)cccc1Cl | 24.1% |
| O=C(CSc1nnc(Nc2ccccc2F)s1)NC1CCCC1 | 0.718% |
| O=C(CNc1ccccc1)N/N=C/c1ccc2c(c1)OCCO2 | -1.82% |
| Cc1ccc(NC(=S)N2CCN(Cc3ccc4c(c3)OCO4)CC2)c(C)c1 | -1.01% |
| Cc1ccc(-c2c(C(=O)N/N=C/c3ccco3)nnn2-c2nonc2N)cc1 | 11.2% |
| CC12CCC(C(=O)N(CCC#N)CCC#N)(CC1=O)C2(C)C (stereo not drawn) | 7.57% |
| O=C(Nc1cccc(Cl)c1)C1CCCN(S(=O)(=O)c2cnc[nH]2)C1 (stereo not drawn) | -0.341% |
| COc1ccc(N(CC(=O)NCc2ccccc2OC)S(=O)(=O)c2c(C)nn(C)c2C)cc1 | -10.6% |
| CCOc1ccc2nc(SCC(=O)c3ccccc3)sc2c1 | 8.84% |
| O=C(NCCCCc1ccccc1)C1CC(c2ccccc2C(F)(F)F)=NO1 (stereo not drawn) | -4.51% |
| CC(C)c1ccc(NC(=S)NN2CCOCC2)cc1 | 12.3% |
| CCNC(=S)N/N=C1\CCCCc2ccccc21 | -3.93% |
| COc1cccc2[nH]c3c(=O)[nH]cnc3c12 | 18.9% |
| Cc1cc(C)c(N=Cc2c(O)[nH]c(=O)[nH]c2=O)c(C)c1 | 11.6% |
| COC(=O)CCC(=O)NC(=S)Nc1ccccc1F | 0.396% |
| O=C(NCc1cccs1)c1ccc([N+](=O)[O-])cc1Cl | -27.9% |
| CC(C)(C)NC(=O)Cn1c(=O)oc2ccc(Cl)cc21 | 6.54% |
| COc1ccc(C(=O)OC2CCN(C)CC2)cc1.Cl | -11.8% |
| COc1ccc(C(=O)NCC2(N3CCCCC3)CCCCC2)cc1S(=O)(=O)N(C)C | -7.09% |
| COC(=O)c1cn(C(=O)OC)c2ccccc12 | 12.8% |
| CCSc1nnc(CSc2ncccn2)n1C | 2.72% |
| CC(C)(C)NC(=O)NC(=O)CSc1cccc(C(F)(F)F)c1 | 8.87% |
| Cc1ccc(C)n1-n1c(C)nc2scc(-c3cccs3)c2c1=O | -13.1% |

| SMILES | hERG current change (%, negative = inhibition) at 10uM |
| --- | --- |
| CN(C)c1oc(COc2ccc(F)cc2)nc1C#N | -18.6% |
| Cc1cc(C)n(CCNC(=O)C2CCC(=O)N(CCc3cccc(F)c3)C2)n1 (stereo not drawn) | 26.9% |
| O=C(NC1CC1)C1CCN(C2CCN(C(=O)Cc3ccc4c(c3)OCO4)CC2)CC1 | 22.3% |
| O=C(COC(=O)/C=C/c1ccccc1)NC1CCCCC1 | -4.97% |
| CCOc1ccc(OCCCC(=O)Nc2nc3ccccc3[nH]2)cc1 | 12% |
| CCOc1ccccc1NC(=O)CSc1nc2[nH]ncc2c(=O)[nH]1 | 7.46% |
| CN(C)c1ccc(/C=C2\C(=O)NC(=O)N(CCc3ccc(F)cc3)C2=O)cc1 | 11.7% |
| CC(C)[C@H](NC(=O)c1ccco1)C(=O)NC12CC3CC(CC(C3)C1)C2 | -5.81% |
| CCCCn1cnc2cc(C)c(C)cc21 | -5.01% |
| O=C(CS(=O)(=O)c1ccc(C(F)(F)F)cn1)NNC(=O)c1ccccc1 | 8.73% |
| CC1(C)CC(=O)c2c(O)cc(OCC(=O)Nc3ccc(CCO)cc3)cc2O1 | -21.4% |
| O=C(CCN1C(=O)C2C3CCC(C3)C2C1=O)Nc1cccc(Cl)c1 (stereo not drawn) | -9.91% |
| CC1CCN(CC(=O)N2CCCc3c2c(=O)oc2ccc(OCc4ccccc4)cc32)CC1 | -10.5% |
| O=C(Nc1ccccc1O)c1cc(S(=O)(=O)N2CCOCC2)c(Cl)cc1Cl | -16.4% |
| COC(=O)CSc1nnc(-c2ccc(S(=O)(=O)NCc3cccs3)cc2)o1 | 4.55% |
| CCn1c(SCC(=O)Nc2ccc(C(C)=O)cc2)nnc1C1CC1 | 8.19% |
| O=C(O)C1(S(=O)(=O)CCC(F)=C(F)F)CC1 | 21.6% |
| Cc1ccc(N2CC(C)Cn3c2nc2c3c(=O)n(CC(=O)OCc3ccccc3)c(=O)n2C)cc1C (stereo not drawn) | -15.7% |
| Cc1cccc(OCCCC(=O)Nc2ccc(S(=O)(=O)Nc3onc(C)c3C)cc2)c1 | 8.48% |
| O=C(NC1CCCCC1)N(CCN1CCCC1)Cc1cc2cc3c(cc2[nH]c1=O)OCCO3 | 4.34% |
| c1ccc(-c2nnc(-c3ccccc3)c(-c3c[nH]c4ccccc34)n2)cc1 | 10.5% |
| CCOc1ccccc1NC(=O)NNS(=O)(=O)c1cc(C)ccc1C | 6.71% |
| CN1CCN(S(=O)(=O)c2ccc3ccccc3c2)CC1 | 1.81% |

| SMILES | hERG current change (%, negative = inhibition) at 10uM |
| --- | --- |
| CC1CCCCN1C(=O)CSc1nc2ccccc2[nH]1 (stereo not drawn) | 25.8% |
| CC(C)CC(c1nnnn1C(C)C)N1CCN(C(=O)c2ccco2)CC1.Cl (stereo not drawn) | -35.2% |
| COc1ccc(-c2cccc(C(=O)Nc3ccc(C)cc3)c2)cc1 | 16.9% |
| Cc1cn(S(=O)(=O)c2cc(Br)ccc2Br)cn1 | 1.08% |
| O=C1NC(=O)N(Cc2ccco2)C(=O)/C1=C/C=C/c1ccco1 | 6.95% |
| Cc1cc(NC(=O)CCC2COc3ccccc3O2)no1 (stereo not drawn) | 2.92% |
| C=CCOc1ccc2c(c1)C(=NO)c1cc(OCC=C)ccc1-2 | 7.91% |
| C1=C(N2CCOCC2)/C(=C/c2nc3ccccc3[nH]2)CC1 | 6.62% |
| O=C(CSC(=S)N1CCOCC1)Nc1ccc(S(=O)(=O)Nc2ncccn2)cc1 | 21.4% |
| COc1ccc(C2c3sc(=O)[nH]c3SC3C4CCC(C4)C23)cc1OC (stereo not drawn) | -17.5% |
| CC1CCN(Cc2nnnn2CCCC(=O)NCCN2CCOCC2)CC1 | 9.52% |
| NC(=O)C1(N2CCCCC2)CCN(C(=O)Nc2ccccc2C(F)(F)F)CC1 | 12.4% |
| COc1ccccc1/C=N/NC(=O)c1nnn(-c2nonc2N)c1CN(C)c1ccccc1 | 13.4% |
| CCN(CC)c1ccc(NC(=O)c2ccccc2OCC(=O)OC)cc1 | -0.764% |
| O=C(Nc1ccc2nc(-c3ccccn3)[nH]c2c1)C1CCCCC1 | -7.58% |
| O=C(O)CCCNS(=O)(=O)c1cccs1 | 13.9% |
| CCOc1ccc2oc(=O)cc(C)c2c1 | 14.3% |
| C=C1CSc2nc(=O)c3c4c(sc3n21)CCC4 | -7.85% |
| C=CC[n+]1c(-c2ccc(C)cc2)csc1Nc1c(C)n(C)n(-c2ccccc2)c1=O.[Br-] | -26.4% |
| Cc1cc(C)cc(OCC(=O)OCC(=O)N(C)CC(=O)Nc2ccc(F)cc2)c1 | -4.65% |
| Cc1cccc(C)c1OCC(O)CN1CCc2ccccc2C1.Cl (stereo not drawn) | -64.2% |
